Source: the supplement of paper PMC10037445
Whole data set: some 2,900 compounds, median “IRF Lucia reporter activity, fold change vs agonist alone” near 0.9, cut for the highest 2% near 2.8. The list shows a part of the results.

Legend:
[1] = test system: RAW-Dual; assay: IRF Lucia reporter activity, fold change vs agonist alone; cytotoxicity flag (confluency mask): not cytotoxic; higher = enhanced IRF activity
How it was run: (§1)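 Library stock was pin-tooled at 50 nL into 384-well plates of RAW-Dual macrophages (50,000 cells/well, DMEM), followed 1 h later by a PRR agonist, and the cells were kept at 37 °C, 5% CO2. Supernatant collected after 20 hours was read for IRF by QuantiLuc luminescence and for NF-κB by QuantiBlue absorbance at 620 nm. Reporter activity is fold change over agonist-alone wells, and a well counted as cytotoxic when its IncuCyte confluency was below 70% of agonist controls in both mask sets.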

[2] = test system: RAW-Dual; assay: IRF Lucia reporter activity, fold change vs agonist alone; higher = enhanced IRF activity; conditions: library stock concentration (final ~1000-fold dilution): 10 mM, agonist: MPLA (TLR4) […]
How it was run: as §1

[3] = test system: RAW-Dual; assay: IRF Lucia reporter activity, fold change vs agonist alone; cytotoxicity flag (confluency mask): cytotoxic (confluency <70% of control); higher = enhanced IRF activity
How it was run: as §1

[4] = agonist: 3'3'-cGAMP (STING) 10 ug/mL
[5] = cytotoxicity flag (confluency mask): not cytotoxic

Compound: Cl.Cn1cc(C(=O)C2CCc3nc[nH]c3C2)c2ccccc21 (stereo not drawn) (library stock concentration (final ~1000-fold dilution): 10 mM)
- IRF Lucia reporter activity [1, 4]: 1.01
- IRF Lucia reporter activity ([1]; agonist: LPS (TLR4) 0.1 ug/mL): 0.582

Compound: Cl.Cn1cc(C(=O)C2CCc3nc[nH]c3C2)c2ccccc21 (stereo not drawn)
- IRF Lucia reporter activity [2, 5]: 1.06

Compound: COc1c(O[C@@H]2O[C@H](CO)[C@@H](O)[C@H](O)[C@H]2O)cc2oc(-c3ccc(O)cc3)cc(=O)c2c1O (library stock concentration (final ~1000-fold dilution): 10 mM)
- IRF Lucia reporter activity [1, 4]: 1.05
- IRF Lucia reporter activity ([1]; agonist: LPS (TLR4) 0.1 ug/mL): 0.673

Compound: CC(C)CC1NC(=O)C(C(C)C)NC(=O)C2CCCN2C(=O)C(CC(=O)O)NC(=O)C(Cc2c[nH]c3ccccc23)NC1=O (stereo not drawn) (library stock concentration (final ~1000-fold dilution): 10 mM)
- IRF Lucia reporter activity [1, 4]: 1.23
- IRF Lucia reporter activity ([1]; agonist: LPS (TLR4) 0.1 ug/mL): 1.01

Compound: CC[N+](C)(C)c1cccc(O)c1
- IRF Lucia reporter activity [2, 5]: 1.06

Compound: CC[N+](C)(C)c1cccc(O)c1 (library stock concentration (final ~1000-fold dilution): 10 mM)
- IRF Lucia reporter activity [1, 4]: 0.97
- IRF Lucia reporter activity ([1]; agonist: LPS (TLR4) 0.1 ug/mL): 0.769

Compound: CCN(CCO)CCCOc1ccc2c(Nc3cc(CC(=O)Nc4cccc(F)c4)n[nH]3)ncnc2c1 (library stock concentration (final ~1000-fold dilution): 10 mM)
- IRF Lucia reporter activity [1, 4]: 1.16
- IRF Lucia reporter activity ([1]; agonist: LPS (TLR4) 0.1 ug/mL): 0.365

Compound: CCN(CCO)CCCOc1ccc2c(Nc3cc(CC(=O)Nc4cccc(F)c4)n[nH]3)ncnc2c1
- IRF Lucia reporter activity [2, 5]: 1.01

Compound: CC1(C)CC[C@]2(C(=O)O)CC[C@]3(C)C(=CC[C@@H]4[C@@]5(C)C[C@@H](O)[C@H](O)C(C)(C)[C@@H]5CC[C@]43C)[C@@H]2C1 (library stock concentration (final ~1000-fold dilution): 10 mM)
- IRF Lucia reporter activity [1, 4]: 0.92
- IRF Lucia reporter activity ([1]; agonist: LPS (TLR4) 0.1 ug/mL): 1.47

Compound: OC(Cn1cncn1)(Cn1cncn1)c1ccc(F)cc1F (library stock concentration (final ~1000-fold dilution): 10 mM)
- IRF Lucia reporter activity [1, 4]: 1.06
- IRF Lucia reporter activity ([1]; agonist: LPS (TLR4) 0.1 ug/mL): 0.92

Compound: OC(Cn1cncn1)(Cn1cncn1)c1ccc(F)cc1F
- IRF Lucia reporter activity [2, 5]: 1.01

Compound: O=C1NC(=O)C(c2cnc3ccccn23)=C1c1cn2c3c(cc(F)cc13)CN(C(=O)N1CCCCC1)CC2 (library stock concentration (final ~1000-fold dilution): 10 mM)
- IRF Lucia reporter activity [1, 4]: 0.0446
- IRF Lucia reporter activity ([1]; agonist: LPS (TLR4) 0.1 ug/mL): 0.0791

Compound: O=C1NC(=O)C(c2cnc3ccccn23)=C1c1cn2c3c(cc(F)cc13)CN(C(=O)N1CCCCC1)CC2
- IRF Lucia reporter activity [2, 5]: 0.0787

Compound: CC1CCC2C(C)C(OC(=O)CCC(=O)O)OC3OC4(C)CCC1C32OO4 (stereo not drawn) (library stock concentration (final ~1000-fold dilution): 10 mM)
- IRF Lucia reporter activity [1, 4]: 0.638
- IRF Lucia reporter activity ([1]; agonist: LPS (TLR4) 0.1 ug/mL): 0.706

Compound: CC1CCC2C(C)C(OC(=O)CCC(=O)O)OC3OC4(C)CCC1C32OO4 (stereo not drawn)
- IRF Lucia reporter activity [2, 5]: 0.737

Compound: Cc1ccc(S(=O)(=O)c2ccc([N+](=O)[O-])o2)cc1
- IRF Lucia reporter activity ([2]; cytotoxicity flag (confluency mask): cytotoxic (confluency <70% of control)): 0.0157

Compound: Cc1ccc(S(=O)(=O)c2ccc([N+](=O)[O-])o2)cc1 (library stock concentration (final ~1000-fold dilution): 10 mM)
- IRF Lucia reporter activity [3, 4]: 0.014
- IRF Lucia reporter activity ([3]; agonist: LPS (TLR4) 0.1 ug/mL): 0.01

Compound: CC(C)(C(=O)O)c1ccc(C(O)CCCN2CCC(C(O)(c3ccccc3)c3ccccc3)CC2)cc1.Cl (stereo not drawn)
- IRF Lucia reporter activity [2, 5]: 1.05
